Measured values taken from paper PMC4336329 (PLoS ONE, 2015).
The campaign covered roughly 310,000 compounds. About 14,000 (4.5%) showed an effect of 50% or more. The effect is printed as a negative number. Some of the results follow.

Each compound was assayed against human ether-à-go-go-related gene (hERG) potassium channel (human, UniProt Q12809) (assay: primary screen, population patch clamp on CHO cells stably expressing hERG).
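Also: peak tail current of the secondary pulse compared with the same well before compound.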

human ether-à-go-go-related gene (hERG) potassium channel, sequence (Q12809 whole entry, looked up): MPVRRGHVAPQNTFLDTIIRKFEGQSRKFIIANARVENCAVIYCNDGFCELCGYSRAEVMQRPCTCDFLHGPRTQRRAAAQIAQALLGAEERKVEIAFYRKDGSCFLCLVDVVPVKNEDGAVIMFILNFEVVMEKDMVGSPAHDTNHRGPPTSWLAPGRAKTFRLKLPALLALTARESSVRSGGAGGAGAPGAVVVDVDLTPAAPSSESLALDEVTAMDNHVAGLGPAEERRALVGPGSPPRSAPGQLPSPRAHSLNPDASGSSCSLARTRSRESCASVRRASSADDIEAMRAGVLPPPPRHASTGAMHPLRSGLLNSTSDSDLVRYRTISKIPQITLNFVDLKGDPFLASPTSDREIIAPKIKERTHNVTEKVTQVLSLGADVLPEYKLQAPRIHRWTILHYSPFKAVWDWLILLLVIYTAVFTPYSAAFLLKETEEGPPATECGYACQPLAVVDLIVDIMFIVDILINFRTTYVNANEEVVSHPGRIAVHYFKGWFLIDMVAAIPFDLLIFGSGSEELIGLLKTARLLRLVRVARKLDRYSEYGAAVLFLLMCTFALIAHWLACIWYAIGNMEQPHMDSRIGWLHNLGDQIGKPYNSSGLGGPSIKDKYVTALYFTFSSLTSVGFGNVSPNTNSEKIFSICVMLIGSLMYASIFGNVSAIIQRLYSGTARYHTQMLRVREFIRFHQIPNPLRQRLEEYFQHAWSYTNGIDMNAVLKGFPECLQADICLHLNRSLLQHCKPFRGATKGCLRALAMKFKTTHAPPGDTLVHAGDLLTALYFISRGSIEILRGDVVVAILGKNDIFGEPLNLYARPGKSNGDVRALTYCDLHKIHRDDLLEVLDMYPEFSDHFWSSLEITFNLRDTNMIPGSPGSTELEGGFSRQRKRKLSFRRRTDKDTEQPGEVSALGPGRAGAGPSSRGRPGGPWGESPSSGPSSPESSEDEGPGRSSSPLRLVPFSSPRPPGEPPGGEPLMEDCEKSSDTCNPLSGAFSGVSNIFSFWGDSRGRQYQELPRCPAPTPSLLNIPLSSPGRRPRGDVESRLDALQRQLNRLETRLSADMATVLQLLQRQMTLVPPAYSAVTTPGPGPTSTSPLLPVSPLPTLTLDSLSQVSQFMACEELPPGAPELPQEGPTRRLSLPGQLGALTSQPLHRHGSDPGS

Compound | hERG current change (%, negative = inhibition) at 10uM [%]
COc1ccc(/C=C2\SC(=O)N(CCNC(=O)C3=COCCO3)C2=O)cc1 | 2.9
CC(=O)Nc1c(C(=O)Nc2ccc3c(c2)OCO3)oc2ccccc12 | 16.5
Cn1c(=O)[nH]c(=O)c2c1nc(N1CCCC1)n2CC(O)COc1ccccc1 (stereo not shown) | -10.5
CCOc1ccccc1C1CC(=O)NC2=C1C(=O)CC(C)(C)C2 (stereo not shown) | -3.21
CCN1C(=O)N[C@@H](c2cccc(C(F)(F)F)c2)[C@H](C(C)=O)[C@H]1C | -3.36
NS(=O)(=O)c1ccc(CCNC(=O)c2ccc(S(=O)(=O)N3CCCCC3)cc2)cc1 | 7.95
O=C(NCc1ccccn1)c1cc(-c2ccccc2)on1 | 1.85
CN(CC(=O)Nc1c(Cl)cccc1Cl)C(=O)C1=COCCO1 | 17.9
COc1ccc(-c2cc3ccc(OCc4nn[nH]n4)cc3oc2=O)cc1OC | -11.3
COCCN(C(=O)COC(=O)c1ccc(Cl)s1)c1c(N)n(Cc2ccccc2)c(=O)[nH]c1=O | 14.2
O=C(NC1=NCCS1)c1cc(-c2cccc(Br)c2)nc2ccccc12 | -0.647
Cc1ccc2nc(-c3cc(-c4ccccc4)no3)cn2c1 | 16.6
O=C(CNC1C(=O)Nc2ccccc21)Sc1ccccc1 (stereo not shown) | 22.3
O=C(O)Cn1nnnc1SCC(=O)Nc1ccc(OC(F)(F)F)cc1 | -3.09
CC[C@H](C)[C@@H](C(=O)N1CCNCC1)n1cc([C@@H](N)CC(C)C)nn1.Cl | 11.9
CCCCCCSc1ccc([C@@H]2[C@H]3C(=O)N(CC)C(=O)[C@H]3[C@]3(C(=O)OC)CCCN23)cc1.O=C(O)C(F)(F)F | -7.59
CC(=O)N1CCc2ccc(S(=O)(=O)N3CC(C)OC(C)C3)cc21 (stereo not shown) | 36.1
CCn1c(C)nc2cc(C(=O)N/N=C(\C)c3ccc(N4CCOCC4)cc3)ccc21 | 7.29
CC(=O)CCN1C(=O)NC2(CCCc3ccccc32)C1=O (stereo not shown) | 21.9
CC(=O)c1ccc(S(=O)(=O)Nc2ccc(C(=O)NCC(c3cccs3)N3CCOCC3)cc2)cc1 (stereo not shown) | 2.34
CN(CCc1ccccc1)C(=O)CCc1nnc(Cc2ccc3c(c2)OCO3)o1 | -9.1
COc1cc(CNC(C)c2ccccc2)cc(Cl)c1OCC(=O)Nc1ccccc1.Cl (stereo not shown) | 9.86

Compound | hERG current change (%, negative = inhibition) at 10uM [%]
CCC(NC(=O)/C(=C\c1ccc2c(c1)OCO2)NC(C)=O)C(=O)O (stereo not shown) | -1.66
CC(=O)N=C1SC2CS(=O)(=O)CC2N1c1c(Cl)cccc1Cl (stereo not shown) | -6.76
O=C(O)C(=O)O.c1ccc(-c2ccc(OCCCNC3CCCC3)cc2)cc1 | -86.1
Cc1ccccc1NC(=O)C1CC(=O)n2ncnc2N1 (stereo not shown) | 18.1
COC(=O)c1ccc(C(=O)OC)c(NC(=O)CSc2cccc[n+]2[O-])c1 | -5.89
NC(=O)C1CCN(c2oc(-c3ccc(F)cc3)nc2S(=O)(=O)c2ccccc2)CC1 | -17.4
O=C(CSCc1cnn(-c2ccccc2)c1-n1cccc1)N1CCN(Cc2ccccc2)CC1 | -36
O=c1[nH]c(=S)[nH]c2nc(-c3ccccc3)cnc12 | 25.4
CCCC1Cc2c(sc3ncnc(N)c23)CO1 (stereo not shown) | -4.42
COc1ccc(-c2nnc(SCC(=O)NCc3cccs3)n2C(C)C)cc1 | -35.8
O=C(COc1ccccc1Br)c1ccc(O)cc1O | -8.36
O=[N+]([O-])c1cccnc1S(=O)(=O)c1ccccc1 | 15.9
COc1cccc(NC(=O)N2CCCC2C(=O)NC2CC2)c1 (stereo not shown) | 3.61
Cn1c(-c2cc3ccccc3oc2=O)nc2ccccc21 | 5
COc1cc(OC)c(C(=O)NNC(=O)CN(C)S(=O)(=O)c2ccc(Cl)cc2)cc1OC | -19.2
COc1ccc(-n2ccnc2SCC(=O)Nc2ccccc2)cc1 | -28
O=C(CSc1cn(Cc2ccccc2)c2ccccc12)Nc1nccs1 | 8.44
c1ccc(Oc2ccc(-n3cnnn3)cc2)cc1 | -7.4
Cc1cc(C)cc(NC2=NCCCS2)c1 | -15.2
O=C(NCC(=O)N1CCCCCCC1)c1ccccc1Br | 6.24
COc1ccc(C2NC(=O)NC(C)=C2C(=O)OC2CCCCC2)cc1OC (stereo not shown) | 3.27
Cc1c(NC(=O)c2c(N)sc3c2CCCC3)c(=O)n(-c2ccccc2)n1C | -9.72

Compound | hERG current change (%, negative = inhibition) at 10uM [%]
CCC(CC)C(=O)Nc1ccc(C)c(O)c1 | 4.51
COc1ccc(S(=O)(=O)N2CCOC2CNC(=O)C(=O)NCc2ccco2)cc1C (stereo not shown) | -13.9
CCOC(=O)C(=NCCOC)NNc1cc(Cl)ccc1Cl | -7.8
C=C(C)C(=O)Nc1cccc(C2=NOC3(C2)C[C@H](C(N)=O)N(C(=O)CC)C3)c1 (stereo partly shown) | 0.598
COc1cccc(C2C([N+](=O)[O-])=C(N)Oc3c2c(=O)oc2ccccc32)c1 (stereo not shown) | 4.87
Cc1nn(C)c(Cl)c1NC(=O)OCc1ccc(Cl)cc1Cl | -6.17
Cc1ccc2nc(SCC(=O)c3ccc(Cl)s3)[nH]c2c1 | 10.2
Cc1cccc(C)c1NC(=O)c1cnccn1 | 15.3
CC(=O)c1ccccc1NC(=O)CSc1nnc(Cc2csc(C)n2)o1 | 6.38
CCCc1[nH]nc2c1C(c1ccc(OC)c(Cn3nc(C)c(Br)c3C)c1)C(C#N)=C(N)O2 (stereo not shown) | -4.82
C/C(CS(=O)(=O)c1ccc(Cl)c(Cl)c1)=N/NC(N)=S | -18.3
Fc1ccc(-c2nnn(Cc3ccc(F)cc3Cl)n2)cc1 | 6.42
Cc1ccc(Sc2ncccc2C(=O)NCC(c2ccc(F)cc2)N2CCOCC2)c(C)c1 (stereo not shown) | -19.1
Oc1ccccc1/C=N/n1c(-c2ccccc2)n[nH]c1=S | 12.2
O=C(Cc1cccs1)N1CCN=C1SCc1ccc(F)cc1 | -16.7
COc1ccc(OC)c(-c2cc(C(=O)Nc3ccccc3C(N)=O)c3ccccc3n2)c1 | -5.58
Cc1cc(NC(=O)COC(=O)C2CCCN2C(=O)c2cccs2)no1 (stereo not shown) | -4.36
CCCOc1ccccc1C(=O)NC(CO)C(=O)O (stereo not shown) | 7.66
CCCN(C(=O)c1ccco1)c1nnc(-c2cccc(C)c2)s1 | -8.91
C=CCNC(=O)CSc1n[nH]c(-c2cc(Cl)ccc2OC)n1 | 8.25
CC(C)(C)C(=O)CSc1ccc(S(=O)(=O)N2CCN(Cc3ccccc3)CC2)cn1 | -0.498
CCOC(=O)C1CCN(C(=O)CCc2ccccc2)CC1 | 2.13

Compound | hERG current change (%, negative = inhibition) at 10uM [%]
COc1cc(/C=N/n2cnnc2)ccc1OC(=O)c1ccco1 | -0.71
CCN(CC(=O)NCc1ccc(Cl)cc1)C(=O)CSc1ccc(F)cc1 | -71.1
O=C(NCCc1ccccc1)/C(=C\c1ccc([N+](=O)[O-])cc1)NC(=O)c1ccc(Br)cc1 | -37.8
O=C(Nc1ccccc1-c1nc2ccccc2[nH]1)c1ccc(N2C(=O)CCC2=O)cc1 | 9.99
O=C(CCc1nnc(CCC2CCCCC2)o1)NCc1ccon1 | 3.59
CCN(CC)S(=O)(=O)c1ccc(O)c(C(=O)OCC(=O)N2c3ccccc3CC2C)c1 (stereo not shown) | -36.2
COc1ccc(/C=N/NC(=O)c2ccc3nc[nH]c3c2)cc1 | 14.3
COc1ccc(N2CCN(C(=O)CCc3nnc4ccc(N5CCOCC5)nn34)CC2)cc1 | -5.83
CC(C)CCNC(=O)C1CCN(S(=O)(=O)c2ccc3c(c2)CC(C)N3C(=O)C2CCC2)CC1 (stereo not shown) | -12.7
Cc1cccc(S(=O)(=O)NNC(=O)c2sc(C)nc2C)c1 | 4.73
COc1ccc(N=C2NC(=O)CS2)c([N+](=O)[O-])c1 | 11.4
Cc1cccc(C(=O)N2CCCC(CCC(=O)N3CCN(c4ccccn4)CC3)C2)c1C (stereo not shown) | -17.3
Cc1cc(C)c2c(N)c(C(=O)NN)sc2n1 | 12.2
CCOc1cccc(CN2CCC(N3CCC(C(=O)NCC4CCCO4)CC3)CC2)c1 (stereo not shown) | -10.5
CC(=O)N(C)C1(c2nnnn2CCOC(=O)Nc2ccc(Cl)cc2)CCCCC1 | -5.08
O=C(CCN1C(=O)c2ccccc2C1=O)OCn1nnc2ccccc2c1=O | 7.17
Cc1nc2ccc([N+](=O)[O-])cc2s1 | 7.38
O=c1c2ccccc2nc(/C=C/c2ccc(O)c(O)c2)n1-c1ccccc1 | -1.36
CN(C)c1ccc(/C=N/Nc2nc3ccccc3o2)cc1 | 23.7
CCO/N=C(\N)c1[nH]ncc1Br | 7.38
COCCNc1nc(N)c([N+](=O)[O-])c(NCCO)n1 | -2.23
O=C(CNC(=O)c1ccc2ccccc2c1)OCC(=O)N1CCN(S(=O)(=O)c2ccc3ccccc3c2)CC1 | 26.4
